B1: LINE1-full (parent)
chain: UACGUAGGUGGUUUUCCCCUGAUAGUGCUAAGGGGGCCUGGAAGUUUGGACUGGGCAGAGCUCAACACAGCGUGGCAAAGUGGCUGUGGCUAGACUGCCUCUCUGGAUUCCUCGUCACUCAGCAGGGCAUCUCUGAGAGAAAUGCC

Read counts are not given, so values of variants with three or more changes are uncertain.

This series covers variants of B1. Briefly: self-cleavage, relative activity (ratio to wild type); higher = more cleavage; in vitro, sequencing; the parent is a self-cleaving ribozyme.
As to U13C A92U U112A, the self-cleavage was found to be 1.2. Next, U12G U108C A138G: 2.37.

In the case of U13A U109C A121G A124G U134A, the self-cleavage is 1.25. Next, U12G G88A A129G: 0.04; U13C A69G U134C: 0.75; U13C A31U U130C: 0.92. As to U13A U62A A138G, the self-cleavage was determined as 0.02. Next, U12G A22G C90U C101A: 0.11; U13C C95U A107G: 0.1; U13C C71U A121G: 0.75. Next, U13C A65U U87C U96A A124U: 0; U12G C28G U85C A121G: 0; U13C A77U U134A A138G: 0.84.

For U12C U115A U134A A138U, the self-cleavage was 1.55.

For the variant U13C C56U U104C A129G U132C, the self-cleavage was found to be 0.4. The same measure for U13C A22G U26A: 0.49. As to U13C C51U A107G, the self-cleavage was found to be 0.65. The same measure for U13A A22G G35U A124U U143C: 0.91; for U13A U14A C66A: 0.06; for U13C C51A G126A C145A: 1.38. For U12G A22G U85C, the self-cleavage worked out at 0.17. Regarding U13A A65G A141G, the self-cleavage was 0.04. The same measure for U13A U87C A92C: 0.24; for U13A U87C A92G: 0; for U13C A24U A30G A57G A92G U109A: 2.12. Next, U12G A69G A136U: 1.31; U13C A42G A57G A117G C128U: 2.04. As for U12G A59G C128U, the self-cleavage is 0.34. With U13C A50C A64G A136G, the self-cleavage stood at 0.89. The same measure for U13C A57G A140G: 0.82; for U12G U23A A65G U81C: 0.34. The same measure for U13A U23C A50U A59G A69U A117G: 0; for U12C U104C G135A: 2.12.

U13C A59G U62A A77U A78G: the self-cleavage came to 0.38.

For the variant U12G U14C U15C G72A A77G U132C, the self-cleavage is 1.02. The same measure for U13A U109C U112C: 1.15; for U12G A43G G139U: 1.7; for U12G U87A U91C: 0.31. On to U12G U47A U62C U143A, for which the self-cleavage was 0.04. U12G U29C C51A A138G: the self-cleavage worked out at 1.33. Next, U13A U14C A59G U85G: 0; U13C A67G A79G U102C: 0; U13C A24G U46G U85C U132C: 0. Next, U13A U26C U29G U73C: 2.45; U12G U15A A78U U102A A129C A136G: 1.18.

In the case of U13C A65U A138G, the self-cleavage came out at 0.32. The same measure for U13C C19A A67C U85G G135A: 0.13. Next, U12G U115C C123U U134G A141G: 1.4; U13C A43G A77G U108C: 0; U12G U73C A78G U87C: 0.

With U12G U52C A57G A69U, the self-cleavage is 0.22.

U13C A57U A78U: the self-cleavage was determined as 0.3.

On to U12C U108C A124U U143C, for which the self-cleavage came to 1.62. The same measure for U13A A31U U39C A65G A124U A140G: 0. The same measure for U13A A42G A77G C84U A94U U134A: 0.02. The same measure for U12G G27A U52A U96C: 0; for U13C A57G A78U U91C: 1.02; for U13C A117G A129U: 0.71. Take U12C U102A U132C: the self-cleavage turned out to be 2.44. Next, U12G A77G A124U: 1.3. The same measure for U13A U39C U62A U87G U109C: 0. The same measure for U13C C37G U85C: 0.17; for U13C C90U A138U: 0.03; for U12G A50C A64U C99U U119A A121G: 0.32. In the case of U13A U46A U108C A129G, the self-cleavage was determined as 1.02. The same measure for U12G U13C U91C U108C: 0; for U13C A22G A117C U132C: 1.1.

Regarding U12G G48A A78G A94G A107G, the self-cleavage was 1.15. The same measure for U13C A69G G93A: 0.14; for U12G A22G U23A: 1.15. Next, U13A U15C A42G U134C: 0.5; U12C U115A U132A A140G: 1. U13A U96A C99A: the self-cleavage was found to be 0.07. Next, U13C A94G A107G: 0.31; U13A C19G G144C: 0.53; U12G G32U G36C A59G U73C: 0.71. Next, U13A A22U U108C A140U: 0.66; U13A A42G U62C: 0.06; U13A U14C U62C A121C: 0. The same measure for U13C A31U U47C U73A U109C U119C: 0. In the case of U13C A107G C113G A129G, the self-cleavage worked out at 0.48. Regarding U13A U29C U62C U109C A138G, the self-cleavage worked out at 0.31. The same measure for U13C A22G U47C C123A: 1.03.

On to U12G U14C A42G U87A C113A, for which the self-cleavage is 0.44. As for U12G U46C G88A A107G, the self-cleavage was determined as 0.07. The same measure for U13C A65G U91A: 0.07.

As for U13C A59U A79G A141G, the self-cleavage was 0.32.

Consider U13A A50G U85A U96A, for which the self-cleavage was determined as 0.07.

Take U13C A59G G74A: the self-cleavage came to 0. The same measure for U13C C37A A94G U115C: 0; for U13A A50G U81G: 0.63; for U13C C38U U109G A138G U143A: 0.25. As to U13C A65G A67G U87A C120U, the self-cleavage was 0.11. In the case of U12G U26C U45G A78U G83A, the self-cleavage amounted to 0.54. For the variant U12G A67G U134A, the self-cleavage was determined as 0.54. Next, U13C A43G U115C A142G: 2.12. Next, U13A A92U U102C U143C: 0.89; U13A U47C A57G C98U: 0.25; U13A A94G U102C: 0.32. Next, U13C A59G C131A: 0; U12G U47A U134C: 0.71; U13A G33A A94G: 0.19. On to U13C A64C A138G, for which the self-cleavage came out at 0.64. The same measure for U13C A136U A141G U143C: 1.62; for U13C C28G A64G: 0.35; for U12G C98U C113U: 0.1. The same measure for U12G U87A U112C: 0.34. The same measure for U12G U14C U39A U45C A50G: 1.84; for U12G U102C C123U: 1.45. For the variant U13C A57G A117G, the self-cleavage was determined as 0.38. As for U13C A50G A117U U143A, the self-cleavage turned out to be 1.59. As for U12C U132A A142C, the self-cleavage amounted to 1.23. The same measure for U12G U102A A124G: 1.47; for U13C A65G A69C U112C U115A A142G: 0. The same measure for U13C A78G G88U: 0.14.

Consider U13C A30G C84G A117U, for which the self-cleavage turned out to be 0.22. Turning to U13A U23C A43U A65G, the self-cleavage turned out to be 0.13.

In the case of U13A A59G U81C U108C A136U, the self-cleavage was found to be 0. In the case of U12G U108A A124G, the self-cleavage worked out at 1.02. The same measure for U13C A30U A43G A67U U91C: 0; for U13C A59G U81A A141G: 0.19; for U13A U104A U119C: 2.04. The same measure for U12G U47A C103U A124U: 2.11. The same measure for U13A U91C A124G: 0.48; for U13A A22U A30U: 0.76; for U12G U20C U45C U73A A92G U96A A141G: 0. U13C A24U A117G A142G: the self-cleavage was 0.

For the variant U13A U14G U20C C37U U45C A65G U81A U115A, the self-cleavage amounted to 0. In the case of U12G A79G C110G, the self-cleavage came to 2.7. Next, U13A U87A A124U: 0.07; U13C C19U U46A G80A A142G: 1.66; U13A U132C A141G: 1.3.

Take U12G A78G A94G: the self-cleavage was found to be 0. The same measure for U12G U62C A117G: 0.14; for U13A U73C G86A: 0.05; for U13C C17U G93A A140G: 0.08. The same measure for U13C C63U U104A G127A A142G: 0.18.

Turning to U13C C17A U73A A78G A94G, the self-cleavage came to 0.15. Next, U13A A67U G97A U119C U134C: 0.05; U13A A78G U96C: 0.1; U13C A43G A50U A57G: 0. The same measure for U13A U91C U102C: 0; for U12G A30G U91C U132C: 0; for U12G G54U A69G C84G U87C: 0. On to U12C U102C A142C, for which the self-cleavage amounted to 1.23. The same measure for U13C A50U C110U A124G C128U: 1.51; for U13C A77G A124G: 1.41; for U13C A31U A124U: 1.07.

For the variant U13C A77G U112A, the self-cleavage was found to be 1.53. Next, U13A A57G U109C: 0.28. As for U13A G35A G97A, the self-cleavage came out at 0.06. The same measure for U13C A43U U143C: 2.11; for U12C U134A A140G: 0.38.

Take U13C A43G U100C A129U U132C A142U: the self-cleavage was determined as 1.53.

For the variant U13A U112A A138G, the self-cleavage is 1.33. The same measure for U13C A65G C103U: 0.1; for U13A U62A U91C A94G U119A: 0; for U13A A79G G93C: 0.07. Next, U13A A67U U109A G127A: 0.04; U13C A30G U62A G105A U109A: 0.14; U13A U73C C113U A124U: 0.93. Consider U12G U47C A142G, for which the self-cleavage turned out to be 1.75. Next, U13A U29C C84U: 0.13; U13C A64U U100A: 0.34. The same measure for U13C A57G A107U: 1.33; for U13C A78G U96A: 0.1. The same measure for U13C A92G U112C: 0.16.

The record behind these values is the RNAGym collection of RNA variant scans (doi:10.7554/elife.90254).
